The text below walks through data of PubChem BioAssay AID1240 (Sanford-Burnham Center for Chemical Genomics, 2008).

The structures appear in SMILES notation. In all, about 50,000 compounds went through this assay and about 800 (1.6%) showed an effect of 50% or more. Some of the results follow.

The target of the assay is Bcl-2-like protein 10 (Homo sapiens) (UniProt Q9HD36). Description: Phenotype converters, Bcl-B/TR3 peptide binding displacement, primary biochemical FP (AID 1240).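 Note: 0% = Bcl-B with tracer peptide and DMSO and 100% = tracer peptide lacking Bcl-B.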 The settings on record: GST-Bcl-B / FITC-TR3 peptide fluorescence polarization; stronger effect = higher value; compound at 3.75 mg/L. On the technique in general: Fluorescence polarisation rises when a labelled molecule tumbles more slowly, as on binding a larger partner.
Chain of UniProt Q9HD36 (Q9HD36 whole entry, looked up): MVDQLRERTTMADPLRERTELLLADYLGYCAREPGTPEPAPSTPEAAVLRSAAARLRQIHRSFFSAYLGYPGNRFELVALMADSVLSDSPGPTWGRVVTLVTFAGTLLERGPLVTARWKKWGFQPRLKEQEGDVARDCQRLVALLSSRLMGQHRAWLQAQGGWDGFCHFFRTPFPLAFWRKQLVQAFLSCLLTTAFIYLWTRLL
As to `COC(=O)c1ccc(C2Nc3ccccc3NC3=C2C(=O)CC(C)(C)C3)cc1` (centres undefined), the displacement is 0.6%.
Next, `Cc1c(F)cccc1NC(=O)C(Cc1c[nH]c2ccccc12)NC(=O)OCC(C)C` (centres undefined): 2.2%.
For `COCCNCCOc1c(Cl)cccc1Cl`, the displacement was -10.6%.
Take `O=C(Nc1ccc(F)c([N+](=O)[O-])c1)c1cnccn1`: the displacement is -5.1%.
For the compound `COc1ccc2oc(C(Cl)(Cl)Cl)cc(=O)c2c1`, the displacement was determined as 14.1%.
Turning to `c1ccc(Oc2cccc(CN3CCN(Cc4ccccn4)CC3)c2)cc1`, the displacement is 0.6%.
The result for `C/C(=N/N=C1\NC(=O)C(C)S1)c1ccc(Cl)cc1` (centres undefined) reads 13.1%; that for `COc1ccc(N2C(=O)/C(=C/c3ccc(Br)o3)SC2=S)cc1`, 17.5%.
Regarding `Cc1ccc2oc(C(=O)Nc3ccc(F)cc3)c(C)c2c1`, the displacement was -5.8%.
Next, `CCOc1cc(OCC)cc(C(=O)Nc2c(C)cccc2C)c1`: 10%.
The result for `Cc1ccc(C(=O)Nc2ccccc2C(=O)N2CCCCC2C)cc1` (centres undefined) reads -9.4%.
For the compound `C=CCn1nc(C)c(Cc2c(C)nn(CC=C)c2C)c1C`, the displacement was -4.4%.
The result for `O=C1CCCC2=C1C(c1ccc(OCc3ccccc3)cc1)Nc1ccc3ncccc3c12` (centres undefined) reads 3.4%; that for `CCOc1ccc2nc(NC(=O)c3ccccc3C(=O)O)sc2c1`, -7%; that for `O=C(COC(=O)C1CCCN1C(=O)Oc1ccccc1)c1ccccc1` (centres undefined), -8.4%.
On to `CN=C(Nc1ccccc1OC)SC1CC(=O)N(c2ccc(C(=O)OC)cc2)C1=O` (centres undefined), for which the displacement was -7.4%.
The result for `NC(=O)c1ccc(NC(=O)C23CC4CC(CC(C4)C2)C3)cc1` reads -2.3%; that for `Cc1ccsc1/C=C1\SC(N2CCN(C)CC2)=NC1=O`, 3%.
Next, `Cc1ccc2ncnc(Nc3ccc(I)cc3)c2c1`: 13.4%; `CCOc1cc(/C=N/n2cnnc2)cc(Br)c1OCCOc1ccc(C(C)CC)cc1` (centres undefined): -1.3%.
The result for `O=C(O)c1ccc(-c2cc(Cl)ccc2Cl)o1` reads -8.3%; that for `Cc1cc(NC(=O)c2ccc(Br)o2)no1`, 1.6%.
With `Cc1cc(N2CCN(c3ccccc3)CC2)nc(-c2ccccc2O)n1`, the displacement was determined as 34.8%.
Next, `CCCCN(CCCC)S(=O)(=O)c1ccc(C)cc1`: -6.8%; `COc1ccc(CC(=O)NNC(=O)c2cccc(Cl)c2)cc1OC`: -3.1%.
The result for `CC(=O)Nc1ccc(Nc2nc3ccccc3nc2Nc2ccc(NC(C)=O)cc2)cc1` reads -13.4%; that for `O=C(NCc1ccccc1)C(=O)Nc1cccc2ccccc12`, 13.5%.
Take `C/C(=N/O)C(O)C12CC3CC(CC(C3)C1)C2` (centres undefined): the displacement was determined as 16.6%.
In the case of `O=C(O)c1cccc(N2C(=O)CC(Nc3ccc(N4CCOCC4)cc3)C2=O)c1` (centres undefined), the displacement was 47.9%.
Next, `O=C(O)COc1ccccc1C=C1C(=O)NC(=O)N(c2ccccc2F)C1=O`: 4.3%.
For `COC(=O)C(=Cc1cc(Br)c(OCc2ccc([N+](=O)[O-])cc2)c(OC)c1)C(=O)OC`, the displacement stood at 13.2%.
The result for `CC(=O)Nc1nnc(-c2ccccc2)o1` reads -1.2%; that for `COc1ccc(Br)cc1/C=C/C(=O)Nc1cccc(NC(=O)c2ccccc2Cl)c1`, -7.7%.
For `CCSc1nnc(NC(=O)C(CC)c2ccccc2)s1` (centres undefined), the displacement worked out at 3.9%.
Next, `COC(=O)c1c(/N=C/N(C)C)ncn1-c1ccccc1OC`: -4.7%.
`Cc1cc(C)cc(NC(=O)C(=O)NCC(C)C)c1`: the displacement was determined as 5.1%.
The result for `Cc1cc(C)n(S(=O)(=O)c2ccccc2[N+](=O)[O-])n1` reads 11%; that for `CC1=Nc2ccccc2/C1=C\c1sc(=S)n(-c2ccccc2)c1O`, 104%.
As for `O=C1C(=O)N(c2ccccc2)C(c2ccc(O)cc2)/C1=C(\O)c1ccc(Br)cc1` (centres undefined), the displacement stood at 7.7%.
Regarding `CCOC(=O)Nc1sc(C)nc1-c1ccccc1`, the displacement turned out to be 17%.
Take `O=C(c1cc(Cl)ccc1Cl)N1CCCCC1`: the displacement came out at 4.2%.
The result for `O=c1c2ccccc2nc(-c2ccco2)n1-c1cccc2ccccc12` reads 12.4%; that for `CN1C(=O)C(c2c[nH]c3ccccc23)(c2c[nH]c3ccccc23)c2ccccc21`, 8%.
On to `O=C(Nc1ccc(C23CC4CC(CC(C4)C2)C3)cc1)c1ccccc1Cl`, for which the displacement worked out at 16.4%.
Regarding `Cc1ccc(N2CC(C(=O)N3CCCCC3)CC2=O)cc1` (centres undefined), the displacement was -43.3%.
With `CC(=O)Oc1ccc(C(=O)Nc2cccc(C(=O)O)c2)cc1`, the displacement was 7.7%.
Regarding `COc1cc(/C=C2\SC(=S)NC2=O)cc(Br)c1OC(C)=O`, the displacement is 1.6%.
In the case of `CCN1C(=N)N(c2nc(N(C)C)nc(N(C)C)n2)CC1=O`, the displacement stood at 15%.
In the case of `Cc1cccc(C(=O)N/N=C/c2ccc(OC3CSC3)cc2)c1`, the displacement came to 2.5%.
On to `Cc1cc(C)c(/C=N/O)c(C)c1/C=N/O`, for which the displacement amounted to 5.3%.
Regarding `O=C(/C=C/c1ccc(O)cc1)c1ccc(NC2=C(N3CCCCC3)C(=O)c3ccccc3C2=O)cc1`, the displacement is 13.5%.
Regarding `Cc1ccccc1C(=O)Nc1ccc(-c2nc3ccccc3[nH]2)cc1`, the displacement is -3.8%.
The result for `COc1cccc(-n2c(C=C3C(=O)Nc4ccc(Br)cc43)nc3ccccc3c2=O)c1` reads 1.8%; that for `O=S(=O)(NCCN1CCOCC1)c1cc(Cl)ccc1Cl`, -12.2%.
The result for `Cc1nnc(NC(=O)/C=C/c2ccc(F)cc2)s1` reads -11.3%.
On to `O=S(=O)(Nc1ccc(O)c(Br)c1)c1ccc(F)cc1`, for which the displacement was 15.9%.
The result for `O=c1c2c3c(sc2[nH]c(=S)n1-c1ccccc1)-c1ccccc1CC3` reads 102%; that for `CCNC(=O)/C(C#N)=C/c1ccc(O)c(OCC)c1`, -10.7%; that for `Cc1cc(C)nc(NS(=O)(=O)c2ccc(NC(=O)CSc3nnnn3-c3ccccc3)cc2)n1`, 6.5%.
Next, `C=CCN1C(=O)/C(=C\c2cccc(OS(=O)(=O)c3ccc(C)cc3)c2)SC1=S`: -1.3%; `CCOC(=O)/C=C/c1cc(C(=O)OCC)c(/C=C/C(=O)OCC)cc1C(=O)OCC`: -11.4%.
The result for `CC(C)NC(=O)C(=O)Nc1ccc(Cl)c(Cl)c1` reads 6.1%.
`Cc1cc(C)n(C(=O)CCC(=O)Nc2cccc(Cl)c2C)n1`: the displacement is -3.9%.
Next, `COc1ccc(CNC(=O)CN(c2cccc3ccccc23)S(C)(=O)=O)cc1`: -7.1%.
Next, `CCC(C)OC(=O)c1cccc(-c2ccc(OC(C)=O)cc2)c1` (centres undefined): 10.4%; `CC1(C)CC(NC(=O)COc2ccccc2Cl)CC(C)(C)N1`: -6.7%; `COc1cc(/C=N/N2CCN(Cc3cccc4ccccc34)CC2)cc(OC)c1O`: 14.6%.
The result for `O=C(O)/C=C\C(=O)Nc1ccccc1SC(F)(F)F` reads 9.3%.
As for `CC(=O)Nc1nc(O)c(/C=C2/C(C)=Nc3ccccc32)s1`, the displacement is -45.5%.
The result for `Cc1ccccc1C(=O)Nc1cccc(NC(=O)COc2ccccc2Cl)c1` reads 11.6%; that for `CCOc1cccc(C(=O)Nc2sc(C)c(-c3ccc(C)cc3)c2C(=O)OC)c1`, -7%.
The result for `Cc1cc(C)c(NC(=O)C(=O)NCC(C)O)c(C)c1` (centres undefined) reads 1.9%.
In the case of `O=C1C(=O)N(c2cccc(Br)c2)C(c2ccccc2[N+](=O)[O-])/C1=C(/O)c1ccccc1` (centres undefined), the displacement was -6.8%.
Next, `Cc1cc(/C=C2\SC(=O)NC2=O)c(C)n1-c1ccc(-c2ccccc2)cc1`: -11%; `COc1ccccc1C/C(N)=N/OC(=O)c1ccccc1Br`: 7.1%.
Next, `COc1ccc(N2C(=O)/C(=C\c3ccc(O)c([N+](=O)[O-])c3)SC2=S)cc1`: -3.1%.
Next, `O=C1C(=Cc2ccc(O)c(Cl)c2)C(=O)c2ccccc21`: -3.8%.
Take `COc1cccc(-c2nc3ncc(Br)cc3[nH]2)c1OC`: the displacement stood at 19.9%.
In the case of `Oc1ccccc1C(O)(c1ccccc1)c1ccccc1`, the displacement is 3%.
For `COc1cc(NC(=O)CCCOc2ccccc2)c(OC)cc1Cl`, the displacement turned out to be 71.9%.
As to `COc1ccc(Br)cc1C(=O)Nc1ccccc1O`, the displacement stood at 2%.
The result for `O=C(c1cc2ccccc2oc1=O)N1CCN(C(c2ccccc2)c2ccccc2)CC1` reads 5.1%; that for `CCCC1=NN2C(=N)/C(=C/c3ccc(-c4ccc(F)cc4)o3)C(=O)N=C2S1`, 135%; that for `Cc1cccc(OCC(=O)Nc2ccc(N3CCOCC3)cc2)c1`, 1.8%.
Consider `CN1CCN(NC(=O)COc2ccc(Cl)cc2)CC1`, for which the displacement amounted to 3.3%.
As to `Cc1ccc(NC(=O)c2ccn(C(=O)Nc3ccccc3)n2)c(C)c1`, the displacement was -1.6%.
`CC(C)CC(=O)NC(NC(=O)CC(C)C)c1cccc([N+](=O)[O-])c1`: the displacement is -11.2%.
Next, `CC(=O)C1=C(O)C(=O)N(c2nc3ccccc3s2)C1c1ccc(Cl)cc1Cl` (centres undefined): 6.7%; `NC(=O)c1ccccc1NC(=O)c1ccccc1F`: 11.7%.
Next, `CC(=O)Oc1ccc(C(=O)Nc2ccccc2C(=O)NCC(C)C)cc1`: 10%.
As to `COc1ccc(/C(N)=N/OC(=O)c2ccccc2F)cc1`, the displacement turned out to be 17.5%.
As to `O=C(NCc1ccccc1)NC(=O)c1ccccc1F`, the displacement was -3.1%.
For `Cc1ccc(S(=O)(=O)/N=C/c2ccco2)cc1`, the displacement worked out at 5.6%.
Regarding `Nc1cc(Cl)c(S(=O)(=O)N2CCOCC2)cc1S(=O)(=O)N1CCOCC1`, the displacement was -4.4%.
The result for `Cc1cccc(N2C(=O)C(=O)/C(=C(\O)c3ccccc3)C2c2ccc([N+](=O)[O-])cc2)c1` (centres undefined) reads 2.9%.
The result for `COc1cc(C(=O)Nc2ccc(/C=C/C(=O)c3ccccc3)cc2)cc(OC)c1OC` reads -8.2%; that for `c1ccc(C(c2ccccc2)N2CCN(c3nc4ccccc4n4cnnc34)CC2)cc1`, 5.7%.
The result for `CCOC(=O)/C(N=Nc1cccc(C)c1C)=C(/C)O` reads 1.2%; that for `Cc1cc(OCC(=O)N2CCN(c3ccc([N+](=O)[O-])cc3)CC2)ccc1Cl`, 14.5%.
For `O=C1C2C3C=CC(C4CC34)C2C(=O)N1c1ccccc1Cl` (centres undefined), the displacement came to 19.3%.
In the case of `O=C(CSc1cccc2cccnc12)N1CCOCC1`, the displacement is -2.3%.
As to `Cc1ccccc1C(=O)NNC(=O)c1ccc2ccccc2c1`, the displacement is -4.7%.
As to `Cc1ccc(NC(=O)CCCCC(=O)Nc2ccc(C)c(F)c2)cc1F`, the displacement is -10.4%.
Take `NC1=NC(=O)/C(=C\c2ccc(-c3cccc(C(=O)O)c3)o2)S1`: the displacement is -0.5%.
Next, `Cc1ccn2c(C(=O)N/N=C\c3cccs3)c(C)nc2c1`: -8.2%.
As to `Cc1ccc(-c2nnc(NC(=O)Nc3cccc(Cl)c3)s2)cc1C`, the displacement was 13.5%.
Next, `CCOc1cc(/C=C2/SC(=Nc3ccc(Cl)cc3)NC2=O)ccc1O`: -7.7%.
Next, `O=C(Cc1ccc(Br)cc1)Nc1ccccc1F`: 8.3%; `CC(=O)N=CC1=C(O)c2ccccc2C1=O`: -3.5%.
The result for `O=C(CSCC(=O)Nc1ccccn1)Nc1ccc2ccccc2c1` reads -27.1%.
Turning to `O=C1CCCc2c1[nH]c1ccc(Cl)cc21`, the displacement is 11.4%.
Next, `Cc1nnc(Nc2ccc3c(c2)ncn3C)c2ccccc12`: -0.6%; `Cc1ccc(NC(=O)C2CC3c4ccccc4C2c2ccccc23)cc1` (centres undefined): -1.3%; `CCOc1ccc2nc(SCC(=O)Nc3cc(OC)ccc3OC)sc2c1`: 5.8%.
